The other results are listed elsewhere or left out.

This assay addresses T1, MBP-FoxP1dN (Mus musculus, UniProt P58462 326-579).
T1 sequence: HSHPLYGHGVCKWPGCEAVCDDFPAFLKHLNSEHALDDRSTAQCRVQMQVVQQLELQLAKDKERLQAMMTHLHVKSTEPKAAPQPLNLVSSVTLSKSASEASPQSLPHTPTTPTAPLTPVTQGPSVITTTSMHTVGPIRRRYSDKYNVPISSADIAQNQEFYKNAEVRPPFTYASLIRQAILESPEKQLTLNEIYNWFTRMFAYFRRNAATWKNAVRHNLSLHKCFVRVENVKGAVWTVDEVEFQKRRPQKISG
Description: PD-seq (MBP pull-down with sequencing); 20 mM Tris-HCl pH 7.5, 100 mM NaCl, 1.5 mM MgCl2, 0.4 uM protein, 0.1 uM dsDNA library, 30 min, room temperature, amylose pull-down; high values mean tight binding. To be noted: protein: recombinant; tags: His6-MBP; chain copies: 2; dsDNA, one strand shown. An outline of the steps: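 A fragment of mouse FoxP3 or FoxP1 without its N-terminus, carrying a His6-MBP tag and produced in E. coli, was combined at 0.4 µM with a 0.1 µM degenerate double-stranded DNA library filled in with Klenow. The mixture sat for 30 min at room temperature in Tris pH 7.5 buffer containing NaCl and MgCl2. Protein–DNA complexes were captured on amylose resin, washed three times, and the DNA was freed with proteinase K, barcoded by PCR and sequenced on Illumina. Binding is expressed as reads-per-million enrichment of pull-down over input, with replicates pooled.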
On to “GATGATTGTTCTCCCAGCTGATGAATTCATCGCCTCGAGTAAACAAATTTTCCTAATCTTTCTGTTCAAGCGCCATCTAC”, for which the binding signal is 0.873 RPM ratio (pull-down/input). Regarding “GATGATTGTTCTCCCAGCTGATGAATTATTTCATTCGAGTAAACAAATTTTCCTAATCTTTCTGTTCAAGCGCCATCTAC”, the binding signal was 1.12 RPM ratio (pull-down/input). The figure for “GATGATTGTTCTCCCAGCTGATGAATTTTCGTACTCGAGTAAACAAATTTTCCTAATCTTTCTGTTCAAGCGCCATCTAC” is 0.994 RPM ratio (pull-down/input); for “GATGATTGTTCTCCCAGCTGATGAATTGTCCTAATCGAGTAAACAAATTTTCCTAATCTTTCTGTTCAAGCGCCATCTAC” it is 1.27 RPM ratio (pull-down/input).

As for “GATGATTGTTCTCCCAGCTGATGAATTCTAAATATCGAGTAAACAAATTTTCCTAATCTTTCTGTTCAAGCGCCATCTAC”, the binding signal is 1.76 RPM ratio (pull-down/input). As for “GATGATTGTTCTCCCAGCTGATGAATTTGGTTCGTCGAGTAAACAAATTTTCCTAATCTTTCTGTTCAAGCGCCATCTAC”, the figure is 0.948 RPM ratio (pull-down/input). With “GATGATTGTTCTCCCAGCTGATGAATTTTGAACCTCGAGTAAACAAATTTTCCTAATCTTTCTGTTCAAGCGCCATCTAC”, the binding signal was 0.855 RPM ratio (pull-down/input). In the case of “GATGATTGTTCTCCCAGCTGATGAATTAAAATGATCGAGTAAACAAATTTTCCTAATCTTTCTGTTCAAGCGCCATCTAC”, the binding signal was 0.937 RPM ratio (pull-down/input). “GATGATTGTTCTCCCAGCTGATGAATTTTTTCCTTCGAGTAAACAAATTTTCCTAATCTTTCTGTTCAAGCGCCATCTAC”: the binding signal was 0.862 RPM ratio (pull-down/input). The figure for “GATGATTGTTCTCCCAGCTGATGAATTACTATGCTCGAGTAAACAAATTTTCCTAATCTTTCTGTTCAAGCGCCATCTAC” is 1.03 RPM ratio (pull-down/input). The figure for “GATGATTGTTCTCCCAGCTGATGAATTGTAGCGTTCGAGTAAACAAATTTTCCTAATCTTTCTGTTCAAGCGCCATCTAC” is 1.09 RPM ratio (pull-down/input). The figure for “GATGATTGTTCTCCCAGCTGATGAATTCGCATAGTCGAGTAAACAAATTTTCCTAATCTTTCTGTTCAAGCGCCATCTAC” is 0.862 RPM ratio (pull-down/input); for “GATGATTGTTCTCCCAGCTGATGAATTTGTATTCTCGAGTAAACAAATTTTCCTAATCTTTCTGTTCAAGCGCCATCTAC” it is 1.44 RPM ratio (pull-down/input). In the case of “GATGATTGTTCTCCCAGCTGATGAATTTGTCGACTCGAGTAAACAAATTTTCCTAATCTTTCTGTTCAAGCGCCATCTAC”, the binding signal is 0.975 RPM ratio (pull-down/input). As for “GATGATTGTTCTCCCAGCTGATGAATTGAGTAGGTCGAGTAAACAAATTTTCCTAATCTTTCTGTTCAAGCGCCATCTAC”, the figure is 0.79 RPM ratio (pull-down/input). On to “GATGATTGTTCTCCCAGCTGATGAATTTCCGACGTCGAGTAAACAAATTTTCCTAATCTTTCTGTTCAAGCGCCATCTAC”, for which the binding signal was 0.803 RPM ratio (pull-down/input).

“GATGATTGTTCTCCCAGCTGATGAATTATCTAGGTCGAGTAAACAAATTTTCCTAATCTTTCTGTTCAAGCGCCATCTAC”: the binding signal was 0.824 RPM ratio (pull-down/input).

Regarding “GATGATTGTTCTCCCAGCTGATGAATTTGGGATATCGAGTAAACAAATTTTCCTAATCTTTCTGTTCAAGCGCCATCTAC”, the binding signal was 0.916 RPM ratio (pull-down/input). With “GATGATTGTTCTCCCAGCTGATGAATTAATACGTTCGAGTAAACAAATTTTCCTAATCTTTCTGTTCAAGCGCCATCTAC”, the binding signal was 1.15 RPM ratio (pull-down/input).

Regarding “GATGATTGTTCTCCCAGCTGATGAATTGTTTCTGTCGAGTAAACAAATTTTCCTAATCTTTCTGTTCAAGCGCCATCTAC”, the binding signal is 1.25 RPM ratio (pull-down/input). The figure for “GATGATTGTTCTCCCAGCTGATGAATTGCAAGCGTCGAGTAAACAAATTTTCCTAATCTTTCTGTTCAAGCGCCATCTAC” is 1.11 RPM ratio (pull-down/input). The figure for “GATGATTGTTCTCCCAGCTGATGAATTGCACCCGTCGAGTAAACAAATTTTCCTAATCTTTCTGTTCAAGCGCCATCTAC” is 1.1 RPM ratio (pull-down/input); for “GATGATTGTTCTCCCAGCTGATGAATTGTCAACCTCGAGTAAACAAATTTTCCTAATCTTTCTGTTCAAGCGCCATCTAC” it is 1.24 RPM ratio (pull-down/input). The figure for “GATGATTGTTCTCCCAGCTGATGAATTCAGGCAATCGAGTAAACAAATTTTCCTAATCTTTCTGTTCAAGCGCCATCTAC” is 1.08 RPM ratio (pull-down/input); for “GATGATTGTTCTCCCAGCTGATGAATTCCTCCATTCGAGTAAACAAATTTTCCTAATCTTTCTGTTCAAGCGCCATCTAC” it is 0.893 RPM ratio (pull-down/input). On to “GATGATTGTTCTCCCAGCTGATGAATTGGACGCTTCGAGTAAACAAATTTTCCTAATCTTTCTGTTCAAGCGCCATCTAC”, for which the binding signal was 0.912 RPM ratio (pull-down/input). As for “GATGATTGTTCTCCCAGCTGATGAATTAGAGCATTCGAGTAAACAAATTTTCCTAATCTTTCTGTTCAAGCGCCATCTAC”, the figure is 1.14 RPM ratio (pull-down/input); as for “GATGATTGTTCTCCCAGCTGATGAATTGCAATTGTCGAGTAAACAAATTTTCCTAATCTTTCTGTTCAAGCGCCATCTAC”, 1.56 RPM ratio (pull-down/input); as for “GATGATTGTTCTCCCAGCTGATGAATTTGTTCAGTCGAGTAAACAAATTTTCCTAATCTTTCTGTTCAAGCGCCATCTAC”, 1.02 RPM ratio (pull-down/input).

“GATGATTGTTCTCCCAGCTGATGAATTAGTTTGATCGAGTAAACAAATTTTCCTAATCTTTCTGTTCAAGCGCCATCTAC”: the binding signal was 0.918 RPM ratio (pull-down/input). Regarding “GATGATTGTTCTCCCAGCTGATGAATTTAGGCTCTCGAGTAAACAAATTTTCCTAATCTTTCTGTTCAAGCGCCATCTAC”, the binding signal was 0.864 RPM ratio (pull-down/input).

Values taken from PMC12820563, “FoxP3 forms a head-to-head dimer in vivo and stabilizes its multimerization on adjacent microsatellites”.
